In PubChem BioAssay AID504832 (National Center for Advancing Translational Sciences (NCATS), 2011):
Values joined by “and” are separate entries in the source; they are usually repeats but may differ in a detail not shown here. Identical values can stand only once. About 18,000 (5.8%) of roughly 310,000 compounds were called active. The inconclusive results got no clear call from the source; some entries with a clear call stand among them for comparison. Calls follow the shape of the dose curve; as a rule, active = well fitted inhibition curve with a large enough effect; inconclusive = small, poorly fitted or top-dose-only effect, or another doubt; inactive = no such curve, though single readings can be large or run the other way. Potencies of inconclusive entries are left out as doubtful fits.

Assay: Primary qHTS for delayed death inhibitors of the malarial parasite plastid, 48 hour incubation
Conditions: P. falciparum luciferase growth in erythrocytes; series mostly up to 28.7 µM; activity change, negative = inhibition: at the top concentration
How it was run: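 Compounds are pin-transferred into medium, infected erythrocytes (2% hematocrit, 0.1% parasitemia final) are added, and plates sit one parasite generation at 37 C in 5% CO2. Detection reagent is then added and luminescence measured.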
% is scaled to controls: 0 for no effect and ±100 for the full control effect; potency is read from the fitted curve at half-maximal effect; tags tell the direction and shape of the fitted curve.

Structure (SMILES)	activity change, negative = inhibition	Potency
CSc1nnc(NC(=O)c2nc(S(=O)(=O)Cc3ccccc3)ncc2Cl)s1	inactive: -7.19%	
Cc1ccc(S(=O)(=O)Nc2ccc(-c3nnc(SCc4ccccc4Cl)o3)cc2)cc1		inconclusive [inhibitor, single point]
COc1ccc(C(=O)N2CCC(C(=O)NC3CC3)CC2)cc1	inactive: 22%	
O=C(Nc1cc(Cl)ccc1O)C1CC(c2ccccc2Cl)=NO1 (centres undefined)	inactive: -11%	
O=c1[nH][nH]cc1C=Nc1ccccc1O		inconclusive [inhibitor, single point]
CCC1(c2ccccc2)NC(=O)N(CC(=O)Nc2ccc(Cl)c(S(=O)(=O)N3CCCCC3)c2)C1=O (centres undefined)		inconclusive [inhibitor, single point]
O=C(COc1ccccc1Cl)NCCCNC(=O)c1ccncc1	inactive: 3.87%	
Cc1nn(-c2ccccc2)c2[nH]c(=O)c(CNCc3ccc4c(c3)OCO4)cc12		active: 4.65 µM
COCCN1CCN(c2c3c(nc4cc(-c5cccc(F)c5)nn24)CCC3)CC1		inconclusive [inhibitor, partial curve]
COc1ccc(/C=C2\CCCC3C2=NN(C(=O)c2ccco2)C3c2ccc(OC)c(OC)c2)cc1OC (centres undefined)		inconclusive [inhibitor, partial curve]
O=C(O)COc1ccccc1/C=N/NC(=O)CSc1nnc(SCc2ccc(Cl)cc2)s1	inactive: 15%	
c1ccc(Cn2c(NCc3ccco3)nc3ccccc32)cc1		inconclusive [inhibitor, partial curve]
CC1CCN(S(=O)(=O)c2ccc(NC(=O)CCN3C(=O)C4CC=CCC4C3=O)cc2)CC1 (centres undefined)		inconclusive [inhibitor, single point]
Cc1cc(NC(=O)CSc2nnc(Cc3cccn3C)n2CCc2ccccc2)no1		inconclusive [inhibitor, partial curve, poor fit]
CCOc1ccccc1OCCOc1ccccc1CC		inconclusive [inhibitor, partial curve]
COc1cccc(C(=O)Nc2ccc3c(cc2=O)[C@@H](NC(C)=O)CCc2cc(OC)c(OC)c(OC)c2-3)c1		active: 8.28 µM
COc1ccc(NC(=O)CCC(=O)c2cccs2)cc1S(=O)(=O)Nc1ccc(Cl)cc1	inactive: 11.2%	
C#CCn1c(S(=O)(=O)Cc2ccc(F)cc2)nc(-c2ccccc2)c1-c1ccccc1		inconclusive [inhibitor, single point]
COC(=O)c1cn(NC(=O)C2CCCCC2)c(=O)c2ccccc12		inconclusive [inhibitor, partial curve, poor fit]
CCOC(=O)C(C(=O)Nc1nc2ccccc2s1)C1CCCCC1 (centres undefined)		inconclusive [inhibitor, single point]
C/C(=N\N=C(N)N)c1ccc(Cl)cc1		active: 6.57 µM
Cc1oc2c(C)c3oc(=O)c(CCC(=O)NCCN4CCOCC4)c(C)c3cc2c1C	inactive: -3.46%	
O=C(O)CSc1nnc(-c2ccc(Cl)cc2)n1-c1ccccc1	inactive: 37%	
Cc1cccc(OCC(=O)Nc2ccc(C(=O)Nc3ccccc3C(=O)O)cc2)c1C	inactive: 33.3%	
O=C(COC(=O)c1ccc(Cl)cc1O)NCCN1C(=O)CSC1=O	inactive: 8.25%	

Structure (SMILES)	activity change, negative = inhibition	Potency
CCOc1ccc2nc(NC(=O)CC3Oc4ccccc4NC3=O)sc2c1 (centres undefined)	inactive: 24.2%	
CN(C(=O)c1ccc(NC(=O)Cc2ccc(NC(=O)C3CCCN(C(=O)CCc4ccccc4)C3)cc2)cc1)C1CC1 (centres undefined)		active: 13.1 µM
COc1ccc(Nc2nc(OC)nc(N3CCN(c4ccc(OC)cc4)CC3)n2)cc1		active: 9.28 µM
O=C(CSc1nc(Nc2ccccc2)nc(N2CCOCC2)n1)N1CCCC1		inconclusive [inhibitor, single point]
CCCn1c(=O)c(C(=O)NNS(=O)(=O)c2ccc(NC(=O)OC)cc2)c(O)c2ccccc21	inactive: 0.255%	
Cc1cnc(C(=O)OCC(=O)c2ccc(Br)s2)cn1		inconclusive [inhibitor, single point]
COc1ccc(C(=O)NNC(=S)NC(=O)C(C)(C)C)cc1		inconclusive [inhibitor, partial curve, poor fit]
CSC1=C(C#N)C(c2ccc(Cl)cc2)C2=C(CC(C)(C)CC2=O)N1 (centres undefined)		active: 7.38 µM
CCCNC(=O)c1ccc(N2CCC3(CC2)CC(c2cccc(Br)c2)=NO3)c(N)c1		active: 11.7 µM
Cn1c(-c2ccccc2)c(/C=N/NC(=O)c2ccc(O)cc2)c2ccccc21	inactive: 68.8%	
O=C(CN1C(=O)CC(c2ccccc2)=Nc2ccccc21)NCc1ccccc1	inactive: -0.66%	
CCCCCCCCCCCCCCCC[N+](C)(C)C		active: 4.78 µM and active: 4.15 µM
COc1c(OC)c2[nH]c(=O)cc3c4ccccc4n(c1=O)c23	inactive: -17.3%	
CCSc1nnc(NC(=O)[C@@H](NC(=O)c2cccc(C)c2)C(C)C)s1	inactive: 2.76%	
COc1ccc(CCNc2nc(C)nc3c2nnn3Cc2ccccc2)cc1OC		inconclusive [inhibitor, partial curve]
CCCCc1nc(N2CCN(C(=O)c3ccco3)CC2)c(C#N)c2c1CCCC2		active: 9.28 µM
CC1CCCC(C)N1C(=O)COC(=O)Cc1ccc(Cl)cc1 (centres undefined)		inconclusive [inhibitor, partial curve]
COc1cc(C(=O)Nc2cc3c4c(c2)CC(=O)N4CCC3)cc(OC)c1OC	inactive: -20.8%	
CCN1C(=O)[C@H]2[C@@H](c3ccc(-c4cc(C(C)=O)cs4)cc3)N3CCC[C@@]3(C(=O)OC)[C@H]2C1=O		inconclusive [inhibitor, partial curve, poor fit]
c1ccc(Cc2cc[n+](Cc3ccccc3)cc2)cc1		active: 1.17 µM
COC(=O)C1(S(=O)(=O)c2cc(Br)cc3c2N(C(C)=O)CC3)CC1		active: 9.28 µM
CCOC(=O)[C@H]1[C@H]2COc3ccc(C)cc3[C@@H]2N2C(=O)[C@@H](C)NC(=O)[C@@]12C	inactive: 1.89%	
Cc1sc2nc(CSC(C)C(=O)Nc3cc(S(C)(=O)=O)ccc3Cl)[nH]c(=O)c2c1C (centres undefined)	inactive: 1.85%	
CC(=O)c1c(C(C)=O)c(C)n(-c2ccc(C)c(NC(=O)c3ccccc3Cl)c2)c1C		inconclusive [inhibitor, single point]
CCCNC(=O)c1cccc(S(=O)(=O)N2CC3(C)CC2CC(C)(C)C3)c1 (centres undefined)		inconclusive [inhibitor, single point]

Structure (SMILES)	activity change, negative = inhibition	Potency
CCC(=O)OCn1nnc2ccccc2c1=O	inactive: -4.47%	
Cc1ccc2cc(CN(Cc3ccco3)C(=O)NC3CCCCC3)c(=O)[nH]c2c1C		active: 11.7 µM
CC(C)(C)c1ccccc1NC(=O)NC1CCN(Cc2c(F)cccc2Cl)CC1		active: 7.38 µM
CCOc1ccccc1N1CC(C(=O)Nc2cccc(S(=O)(=O)N3CCCCC3)c2)CC1=O (centres undefined)		inconclusive [inhibitor, partial curve, poor fit]
CCC1(c2ccc(F)cc2)NC(=O)N(CC(=O)N2c3ccccc3NC(=O)C2(C)C)C1=O (centres undefined)		inconclusive [inhibitor, single point]
O=C(COc1ccccc1Cl)Nc1cc(Cl)ccc1O		inconclusive [inhibitor, partial curve]
CC1Sc2ccc(S(=O)(=O)NCCc3ccc(S(N)(=O)=O)cc3)cc2NC1=O (centres undefined)	inactive: 14.7%	
Clc1ccc2nncn2n1	inactive: -11.7%	
COc1ccccc1C1CC(c2ccc(Br)cc2)=NN1C(=O)c1cccnc1 (centres undefined)		active: 4.15 µM
CCOc1ccc(CCNC(=O)C2CCN(S(=O)(=O)N3CCCCC3)CC2)cc1OCC		inconclusive [inhibitor, partial curve]
O=C(COc1ccc(S(=O)(=O)N2CCOCC2)cc1)Nc1ccccc1Cl		inconclusive [inhibitor, partial curve]
O=C(C1=C[C@H](c2ccc3c(c2)OCO3)C[C@H](OCCCCO)O1)N1CCN(Cc2ccccc2)CC1		inconclusive [inhibitor, partial curve]
COC(=O)c1c(NS(C)(=O)=O)sc2c1CCCC2	inactive: 19.9%	
COc1cccc(Cn2cccc(NC(=O)Nc3ccc(C#N)cc3)c2=O)c1	inactive: -8.33%	
CCOC(=O)N1CCN(C(=O)CN(C2CCCCC2)S(=O)(=O)c2ccc(C)cc2)CC1		active: 10.4 µM
O=c1[nH]c(C2CCN(S(=O)(=O)c3ccccc3)CC2)nc2c1nnn2Cc1ccc2c(c1)OCCO2		inconclusive [inhibitor, partial curve, poor fit]
Cc1ccc2cc3cc(C(=O)NCc4ccc5c(c4)OCO5)oc3nc2c1	inactive: 0.0614%	
COc1ccc([C@H]2[C@H](C(=O)C(C)(C)C)N3N=Cc4ccccc4C3[C@]23N=C(c2ccccc2)OC3=O)cc1 (some centres undefined)		active: 13.1 µM
O=C(NCc1nc2ccccc2[nH]1)C1=C[C@H](c2ccc3c(c2)OCO3)C[C@H](OCc2ccc(CO)cc2)O1	inactive: -6.29%	
CC(C)c1ccc(S(=O)(=O)Nc2ccc(-n3cnnn3)cc2)cc1		inconclusive [inhibitor, partial curve]
Cc1c(CCC(C)C)c(-n2ccnc2C)n2c(nc3ccccc32)c1C#N		inconclusive [inhibitor, partial curve]
C=CCN(CC=C)CCOc1ccc2ccccc2c1	inactive: 1.84%	
N#CC(C#N)=Cc1cc(O)c(O)c(O)c1		active: 7.57 µM
Cc1cc(C)c(C#N)c(SCc2[nH]nc3c2C(c2ccc(F)cc2)C(C#N)=C(N)O3)n1 (centres undefined)		inconclusive [inhibitor, single point]
